Reference: PubChem BioAssay AID686978 (National Center for Advancing Translational Sciences (NCATS), 2013)
The whole screen tested about 420,000 compounds, of which about 64,000 (15%) were called active. This list was built around the results that the source calls inconclusive (neither active nor inactive); the mix of calls is not that of the screen. Calls follow the shape of the dose curve; as a rule, active = well fitted inhibition curve with a large enough effect; inconclusive = small, poorly fitted or top-dose-only effect; inactive = flat fitted curve, though single readings scatter. No potency is given beside an inconclusive call; the fits are too rough.

experiment: qHTS for Inhibitors of human tyrosyl-DNA phosphodiesterase 1 (TDP1): qHTS in cells in absence of CPT; settings: DT40 Tdp1-/- hTDP1 cells, no CPT, ATP luminescence, 48 h; activity change, negative = growth inhibition: at 46.2 µM (top of the series); also: nearly all actives have a fitted effect of over 55% in size
Method in brief: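 Chicken DT40 Tdp1-/- cells complemented with human TDP1, screened without camptothecin (DMSO vehicle only), 400 cells/well. Compounds pin-transferred, cells incubated at 37 °C for at least 48 hr. Growth read as ATP-dependent luminescence (CellTiter-Glo, 30 min at RT).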
% is scaled to controls: 0 for no effect and ±100 for the full control effect; potency is read from the fitted curve at half-maximal effect; tags tell the direction and shape of the fitted curve.

| SMILES | Potency | activity change, negative = growth inhibition |
| --- | --- | --- |
| CC1=CC(=O)N(c2ccn(C)n2)C1=O | inconclusive [inhibitor, partial curve] |  |
| OC(COc1ccc(-c2ccccc2)cc1)CN1CCCCC1 (stereo not drawn) | active: 25.9 µM |  |
| COc1ccc(Cc2nnc(NC(=O)c3cc(OC)cc(OC)c3)s2)cc1 | inconclusive [inhibitor, single point] |  |
| COc1ccccc1N1CCN(C(=O)CCSCc2ccccc2F)CC1 | inconclusive [inhibitor, partial curve, poor fit] |  |
| CCOC(=O)c1cc2c(=O)n3ccccc3nc2n(Cc2ccco2)c1=NC(=O)c1ccccc1OCC | active: 18.4 µM |  |
| CCOc1cc(-c2noc(CCCC(=O)NC3CCCCC3)n2)ccc1OC | inconclusive [inhibitor, single point] |  |
| O=C(Nc1nccs1)c1cn(-c2ccccc2)nc1-c1ccccc1 | inconclusive [inhibitor, single point] |  |
| COc1ccc(S(=O)(=O)Nc2cc(C(C)C)c(O)cc2C)cc1 |  | inconclusive: -36.7% [inhibitor] |
| Cc1cc(C(=O)Nc2ccc3[nH]ccc3c2)no1 |  | inactive: -0.948% |
| CC(NC(=O)CCNC(=O)c1ccc(Br)cc1)c1ccc(-n2ccnc2)cc1 (stereo not drawn) | inconclusive [inhibitor, single point] |  |
| CC(=O)OC[C@@H]1CN(Cc2ccccc2)C[C@H](n2cnc3c(NCc4ccco4)ncnc32)O1 |  | inactive: -11.8% |
| Cc1ccc(C2c3cccn3CCN2S(=O)(=O)c2ccc([N+](=O)[O-])cc2)cc1 (stereo not drawn) | active: 18.4 µM |  |
| CN1CCN(c2oc(-c3ccccc3)nc2S(=O)(=O)c2ccccc2)CC1 |  | inactive: 3.55% |
| COc1ccc(Nc2oc(/C=C/c3ccc(F)cc3)nc2C#N)cc1 | inconclusive [inhibitor, single point] |  |
| COCCNc1nc(NCc2cccs2)nc2ccsc12 | active: 25.9 µM |  |
| CCCCOc1cccc(C2/C(=C(\O)c3ccc4c(c3)OCCO4)C(=O)C(=O)N2CCN2CCOCC2)c1 (stereo not drawn) | inconclusive [inhibitor, single point] |  |
| O=C1c2ccccc2C(=O)N1CC#CCN1CCN(C(c2ccccc2)c2ccccc2)CC1 | inconclusive [inhibitor, partial curve, poor fit] |  |
| COc1ccc(CCNC(=O)CN2CCN(c3cccc(Cl)c3)CC2)cc1OC | active: 20.6 µM |  |
| COc1ccc2nc(SC(C)C(=O)NC3(C#N)CCCCC3)[nH]c2c1 (stereo not drawn) | inconclusive [inhibitor, partial curve, poor fit] |  |
| COc1ccc(CC(=O)NNC(=O)c2cccs2)cc1 |  | inactive: 6.8% |
| O=C(Nc1ccccc1)N(CCN1CCOCC1)Cc1cccc(Cl)c1 |  | inactive: -0.936% |
| Cc1cccc(/C=N/NC(=O)c2cc3c(s2)-c2ccccc2CC3)c1 | active: 14.6 µM |  |
| CCOC(=O)N1CCN(c2ncnc3c2cnn3-c2ccc(OC)cc2)CC1 | inconclusive [inhibitor, partial curve, poor fit] |  |
| C[n+]1ccccc1Nc1cc([N+](=O)[O-])ccc1N |  | inactive: 3.82% |
| COc1cc(OC)cc(C(=O)NC2CCSc3ccccc32)c1 (stereo not drawn) | active: 23.1 µM |  |

| SMILES | Potency | activity change, negative = growth inhibition |
| --- | --- | --- |
| O=C(/C=C/c1cccc([N+](=O)[O-])c1)NCC1CCCO1 (stereo not drawn) |  | inconclusive: -27.3% [inhibitor] |
| COC(=O)C(=O)C/C(=N/Nc1ncnc2ccccc12)c1ccc(Cl)cc1 | inconclusive [inhibitor, single point] |  |
| COc1ccc(-c2[nH]c(-c3ccccc3)nc2SCC(=O)NC2CCCC2)cc1 | active: 20.6 µM |  |
| N#Cc1nc(Cc2cccc3ccccc23)oc1NCC1CCCO1 (stereo not drawn) |  | inactive: -12% |
| COc1ccc(CCNC(=O)c2cc3c(=O)n(C)c4cc(Cl)ccc4c3s2)cc1OC | inconclusive [inhibitor, full curve, poor fit] |  |
| O=C(NCC1CCCO1)c1cccc(S(=O)(=O)N(Cc2ccccc2)c2ccccc2)c1 (stereo not drawn) | inconclusive [inhibitor, partial curve, poor fit] |  |
| Oc1c(C(Nc2cccc(C(F)(F)F)c2)c2cccnc2)ccc2cccnc12 (stereo not drawn) | inconclusive [inhibitor, single point] |  |
| CCOC(=O)c1ccccc1NC(=O)c1cccc(F)c1 | inconclusive [inhibitor, full curve, poor fit] |  |
| O=C(COc1ccccc1F)NCc1ccc(-n2cccc2)cc1 | inconclusive [inhibitor, single point] |  |
| Cc1cc(C)cc(OC(C)c2ccnc3nc(/N=C/N(C)C)nn23)c1 (stereo not drawn) |  | inactive: -19.8% |
| COc1ccccc1C(O)(C(=O)NNc1cccc(C)c1)c1ccccc1OC | inconclusive [inhibitor, single point] |  |
| O=S1(=O)c2ccccc2N(Cc2ccccc2Cl)c2ccccc21 | inconclusive [inhibitor, partial curve] |  |
| COc1ccc(S(=O)(=O)N(C)C(C)CCc2ccco2)cc1 (stereo not drawn) | inconclusive [inhibitor, single point] |  |
| COC(=O)C(C)(C(=O)OC)c1ccc([N+](=O)[O-])cn1 |  | inactive: 2.52% |
| Cn1c(=Nc2ccc(N3CCOCC3)cc2)ccc2ccccc21 | inconclusive [inhibitor, single point] |  |
| O=c1oc2c3c4c(cc2c2c1CCC2)OCCN4CCC3 | inconclusive [inhibitor, partial curve] |  |
| Cc1ccc(CNCCCSc2ncccn2)cc1 |  | inactive: -25.6% |
| CC(C)Nc1nc(NC(C)C)nc(SCCOC(=O)Nc2ccc(Cl)cc2Cl)n1 | inconclusive [inhibitor, partial curve, poor fit] |  |
| CCC1CN(Cc2cccn2-c2ccccn2)Cc2cc(OC)ccc2O1 (stereo not drawn) | inconclusive [inhibitor, single point] |  |
| COc1cc2cnc(-c3cccnc3)cc2cc1OC |  | inactive: -26% |
| O=C(COc1ccccc1)Nc1nc(-c2ccncc2)cs1 | active: 16.4 µM |  |
| CCc1ccccc1NNC(=O)c1sccc1Cl | inconclusive [inhibitor, single point] |  |
| COc1ccccc1NS(=O)(=O)c1cc(NC(=O)c2ccccc2[N+](=O)[O-])ccc1N1CCOCC1 | inconclusive [inhibitor, single point] |  |
| CCOC(=O)c1c(C)[nH]c(C)c1C(=O)COC(=O)c1cccc(S(=O)(=O)NC)c1 | inconclusive [inhibitor, single point] |  |
| CCOc1ccccc1C1NC(=O)NC(C)=C1C(=O)OC1CCCCC1 (stereo not drawn) | inconclusive [inhibitor, single point] |  |

| SMILES | Potency | activity change, negative = growth inhibition |
| --- | --- | --- |
| O=C(Nc1cccc(Cl)c1)Nc1nnc([C@@H]2C[C@H](O)[C@@H](CO)O2)s1 | inconclusive [inhibitor, partial curve] |  |
| c1ccc(CN=C2NN=C(c3ccccc3)CS2)cc1 | inconclusive [inhibitor, single point] |  |
| Cc1ccc(/C=N/n2c(COc3ccccc3)n[nH]c2=S)cc1 |  | inactive: 11.2% |
| COc1c(CC=C(C)C)cc(C2CC(=O)c3c(O)cc(O)cc3O2)cc1CC=C(C)C (stereo not drawn) | inconclusive [inhibitor, single point] |  |
| CC(C)CNC(=O)c1c(F)c(F)c(F)c(F)c1F |  | inactive: -0.446% |
| CCN1CC(CNC(=O)c2ccc3nc(Cc4cccc(Cl)c4)oc3c2)CC1=O (stereo not drawn) | inconclusive [inhibitor, single point] |  |
| CCc1ccc(-c2nc(CN3CCCC(C(=O)NCCc4ccc(OC)c(OC)c4)C3)c(C)o2)cc1 (stereo not drawn) | active: 13 µM |  |
| CCCn1c(C)cc(C(=O)COC(=O)c2ccc(Cl)c(S(=O)(=O)N3CCCC3)c2)c1C | active: 14.6 µM |  |
| CCCCNCc1cc(Br)c(OCC(=O)NCc2ccccc2)c(OC)c1 |  | inconclusive: -34.1% [inhibitor] |
| COc1cccc(NC(=O)c2ccc(CN3CCc4ccccc4C3)cc2)c1 | inconclusive [inhibitor, single point] |  |
| COc1ccccc1CNc1ncnc2ccc(-c3c(C)noc3C)cc12 | active: 11.6 µM |  |
| Cc1ccc(S(=O)(=O)N(CC(=O)Nc2ccccc2-c2ccccc2)c2ccc(C)cc2C)cc1 | inconclusive [inhibitor, single point] |  |
| O=C(NNC(=O)c1ccc(S(=O)(=O)N2CCCCC2)cc1)c1ccc(F)cc1 |  | inactive: -12.8% |
| CCc1cccc(C)c1Nc1nc2ccccc2n2cnnc12 | inconclusive [inhibitor, single point] |  |
| COC(=O)c1ccccc1S(=O)(=O)N1CCC(c2nc3ccccc3o2)CC1 | inconclusive [inhibitor, partial curve] |  |
| CCN(CC)CCNC(C(=O)Nc1cc(C(F)(F)F)ccc1Cl)c1ccccc1 (stereo not drawn) | inconclusive [inhibitor, single point] |  |
| O=c1[nH]c2ccc(Br)cc2o1 |  | inactive: -16.4% |
| Cc1cc2c(cc1C)CSC(c1c(O)ccc3ccccc13)SC2 | inconclusive [inhibitor, single point] |  |
| CC(=O)N[C@@H](Cc1c[nH]c2ccccc12)C(=O)O |  | inactive: 2.89% |
| Cn1c(SCC(=O)Nc2ccc(NC(=O)c3cccs3)cc2)nnc1-c1ccncc1 |  | inactive: -8.04% |
| Cc1ccccc1NC(=O)Cn1c(=O)n(CCCCC(=O)NCc2ccccc2Cl)c(=O)c2ccccc21 | inconclusive [inhibitor, partial curve] |  |
| Cn1cnnc1SCNC(=O)C(F)(F)F |  | inactive: -13.6% |
| Cc1nc2ccccn2c1C(=O)N/N=C/c1ccc(F)cc1 |  | inactive: -2.99% |
